In paper PMC12272249, “Engineering high-efficiency matriptase substrates using E. coli display for applications in prodrug activation” (Cell Reports Methods, 2025):

Molecular target: T1, matriptase (Homo sapiens, UniProt Q9Y5Y6)
T1 construct: purchased R&D Systems (Bio-Techne) 3946-SEB
T1 sequence (Q9Y5Y6 615-855 limits assumed): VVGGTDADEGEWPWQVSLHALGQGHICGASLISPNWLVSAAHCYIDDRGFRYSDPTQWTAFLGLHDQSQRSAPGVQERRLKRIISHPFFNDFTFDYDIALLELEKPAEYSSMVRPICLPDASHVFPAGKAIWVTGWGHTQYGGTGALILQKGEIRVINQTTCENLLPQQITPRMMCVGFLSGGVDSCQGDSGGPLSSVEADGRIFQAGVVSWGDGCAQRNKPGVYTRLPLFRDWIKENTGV
Assay: E. coli display cleavage reporter assay, flow cytometry, matriptase treatment
Details: E. coli-displayed substrate, 1 nM matriptase, 90 min, loss of cleavage reporter relative to untreated controls, two replicates
Protocol: A volume of the glycerol stock sufficient to encompass the library’s diversity at least 10x was inoculated into fresh LB media supplemented with carbenicillin (100 μg/mL). The cultures were grown overnight, diluted to an OD600 of 0.1 in fresh LB media, and induced with 0.6% arabinose once they reached an OD600 of 0.7. After overnight incubation, the induced cell cultures were harvested, washed twice with PBS supplemented with 1% Pluronic acid (PBS-P), and treated with matriptase (50–10 nM) for 30 min at 37°C. […] The sorting gate was placed to retain cells with expression reporter signal but reduced cleavage reporter signal. Sorted cells were grown in LB media with carbenicillin, aliquoted as glycerol stocks, and stored at −80°C. Single colonies from plated dilutions were picked for further analysis.
Negative values were set to zero.

In the case of HYKGRK [MtpC9], the “percentage of cleaved substrate” value was “over 50%”.

For VPRGRR [MtpC5], the “percentage of cleaved substrate” value was “over 50%”.

With GAKSRR [MtpB9] the “percentage of cleaved substrate” value was “over 50%”.
